# Results: PubChem BioAssay AID1745853 (National Center for Advancing Translational Sciences (NCATS), 2022)
# Several values for one entry are separate records, joined by “and”; a condition that tells them apart may be missing. Equal values may be shown once. Some of the results follow. Shown are side measurements of this screen, not its main read-out; they come without a call.
# Legend:
# Assay in all cases: Primary Screen for Target Class Profiling of Small Molecule Inhibitors of Methyltransferases
# [1] = target: Glycine N-methyltransferase (Homo sapiens) (UniProt Q14749); conditions: purified enzyme, MTase-Glo SAH luminescence; measured here: GNMT inhibition; at 40 µM; stronger effect = lower value
# Description: (§1) PI: Matthew D. Hall Ph.D. and Quinlin M. Hanson Ph.D.
# (§2) National Center for Advancing Translational Sciences (NCATS)
# (§3) National Institute of Health (NIH), Rockville, MD
# (§4) Target class profiling (TCP) is a chemical biology approach amenable to investigating understudied biological targets. TCP is achieved by developing a generalizable assay platform and applying it to screen a curated set of compound libraries against representative members of a target class. Small molecule methyltransferases (SMMTase) are a subclass of methyltransferase that act on metabolites to modulate signaling pathways, metabolize xenobiotics, or balance the available methyl pool. We screened four curated libraries totaling 27,574 unique compounds against the SMMTases nicotinamide N-methyltransferase (NNMT), phenylethanolamine N-methyltransferase (PNMT), histamine N-methyltransferase (HNMT), glycine N-methyltransferase (GNMT), catechol O-methyltransferase (COMT), and guanidinoacetate N-methyltransferase (GAMT). The data generated by this TCP can be leveraged for informed tool molecule development. For example, in the associated publication we identified a chemotype of HNMT-selective inhibitors. Additionally, we identified a putative SMMTase-selective inhibitor with potential as a tool molecule for studying broader methyltransferase biology.
# (§5) High-through put screening assays were developed at the National Center for Advancing Translational Science (NCATS) for the enzymes NNMT, PNMT, HNMT, GNMT, COMT, and GAMT. Enzymatic activity was measured as a function of SAM cofactor conversion using the MTase Glo kit (Promega) for all enzymes. All assays were performed in 1536-well format with substrates and SAM concentrations at KM values. Enzyme concentration and assay timing were optimized for 10-20% SAM conversion. Initial screening of 27,574 compounds was done as single-point assays using the highest compound concentration (40 uM). […] These compounds were replated in 11-point dose response and assayed against NNMT, PNMT, HNMT, GNMT, COMT, GAMT, and a counter-assay. The IC50 and efficacy (maximal response) values were determined for each dose-response curve. These values are also accounted for in the area under the curve (AUC) values.
# (§6) PROTOCOL TABLE (as described by Inglese J, Shamu CE and Guy RK. 2007)
# (§7) SEQUENCE No. (e.g., 1, 2, 3, etc.); […] (e.g., Cells, Incubation, Reagent, etc.); VALUE; DESCRIPTION.
# (§8) 1; Reagent; 2 uL; SMMTase Enzyme (2x) in reaction buffer, columns 1- 48.
# (§9) 2; Reagent; 1 uL; SAM (4x) in reaction buffer, columns 1-48.
# (§10) 3; Controls; 23 nL; DMSO in column 4; sinefungin in DMSO (0 uM - 40 uM) in 7-point 1:2 dilution series (n = 2) in column 2.
# (§11) 4; Compounds; 23 nL; Columns 5-48.
# (§12) 5; Reagent; 1 uL; Substrate (4x) in reaction buffer, columns 2-48.
# (§13) 6; Time; 20-30 min; Incubation.
# (§14) 7; Reagent; 1 uL; MTase-Glo reagent (5X), columns 1-48.
# (§15) 8; Time; 30 min; Incubation.
# (§16) 9; Reagent; 5 uL; MTase-Glo Detection reagent, columns 1-48.
# (§17) 10; Time; 30 min; Incubation, luminescence evolution.
# (§18) 11; Detection; Luminescence; ViewLux uHTS Microplate Imager (PerkinElmer).
# (§19) NOTES (numbers refer to Sequence numbers above)
# (§20) 1, 2, 5. White Medium Binding Greiner 1536-well plates (Cat #789175-F, Greiner Bio-One, Monroe, NC); Reaction buffer: 50 mM Tris, pH 8.0, 3 mM MgCl2, 1 mM EDTA, 50 mM NaCl, 1 mM DTT, and 0.1 mg/mL BSA. Evaporation was prevented by covering assay plates with metal lids containing holes to allow gas diffusion.
# (§21) 1. Six SMMTase were profiled: HNMT, GNMT, PNMT, COMT, NNMT, GAMT
# (§22) 5. The corresponding substrate was used for each enzyme: HNMT - 5.3 uM Histamine; GNMT - >500 uM Glycine; PNMT - 16.2 uM Norephinephrine; COMT - 13.7 uM Norephinephrine; NNMT - 3.8 uM Nicotinamide; GAMT - 2.5 uM Guanidinoacetate.6, 8, 10. Room temperature
# (§23) 6. Final reaction conditions: 10 nM COMT, 5 uM SAM, 15 uM norepinephrine, 50 mM Tris, pH 8.0, 3 mM MgCl2, 1 mM EDTA, 50 mM NaCl, 1 mM DTT, and 0.1 mg/mL BSA; refer to tables 2 and S1 for specific timing.
# 8. […]
# [2] = target: Guanidinoacetate N-methyltransferase (Homo sapiens) (UniProt Q14353); conditions: purified enzyme, MTase-Glo SAH luminescence; measured here: GAMT inhibition; at 40 µM; stronger effect = lower value
# Description: as §1, §2, §3, §4, §5, §6, §7, §8, §9, §10, §11, §12, §13, §14, §15, §16, §17, §18, §19, §20, §21, §22, §23
# 8. […]
# [3] = target: Histamine N-methyltransferase (Homo sapiens) (UniProt P50135); conditions: purified enzyme, MTase-Glo SAH luminescence; measured here: HNMT inhibition; at 40 µM; stronger effect = lower value
# Description: as §1, §2, §3, §4, §5, §6, §7, §8, §9, §10, §11, §12, §13, §14, §15, §16, §17, §18, §19, §20, §21, §22, §23
# 8. […]
# [4] = target: Nicotinamide N-methyltransferase (Homo sapiens) (UniProt P40261); conditions: purified enzyme, MTase-Glo SAH luminescence; measured here: NNMT inhibition; at 40 µM; stronger effect = lower value
# Description: as §1, §2, §3, §4, §5, §6, §7, §8, §9, §10, §11, §12, §13, §14, §15, §16, §17, §18, §19, §20, §21, §22, §23
# 8. […]
# [5] = target: Phenylethanolamine N-methyltransferase (Homo sapiens) (UniProt P11086); conditions: purified enzyme, MTase-Glo SAH luminescence; measured here: PNMT inhibition; at 40 µM; stronger effect = lower value
# Description: as §1, §2, §3, §4, §5, §6, §7, §8, §9, §10, §11, §12, §13, §14, §15, §16, §17, §18, §19, §20, §21, §22, §23
# 8. […]
# On the % scale 0 is the no-effect control and ±100 the full control effect.
Structure (SMILES),"activity change, negative = inhibition [1]","activity change, negative = inhibition [2] [%]","activity change, negative = inhibition [3]","activity change, negative = inhibition [4]","activity change, negative = inhibition [5]"
CCC(C)NC(=O)Cn1nc2n(C(C)C)c(=O)c3ccc(C(=O)NC4CCCCC4)cc3n2c1=O (centres undefined),4.61%,0,10.8%,7.87%,4.58%
Cc1ccc(CN2CC(=O)N(Cc3ccccc3)c3ccccc3S2(=O)=O)cc1,14.3%,0,12.9%,1.81%,10.5%
CNc1nccc(-c2cccnc2Oc2cc(C(=O)Nc3cccc(C(F)(F)F)c3)ccc2C)n1,-0.277%,-7.46,6.74%,-20.2%,1.93%
C[C@]12CC[C@@H]3c4ccc(O)cc4CC[C@H]3[C@@H]1CC[C@@H]2OC(=O)CCC1CCCC1,-1.68%,-22.5,9.77%,-21.5%,-5.02%
COc1ccc(OC)c(CN2C(=O)c3ccc(-c4ccco4)n3CC2(C)C(=O)NCc2ccc(Cl)cc2)c1 (centres undefined),-10.8%,-11.1,0.011%,-11.9%,-9.97%
Cc1ccsc1C(=O)N1C[C@@H](F)C[C@H]1C(=O)N1CCCCC1,-2.77%,2.6,2.3%,-0.982%,1.8%
CC(=O)N1CCN(C(=O)c2nc(-c3ccccc3)cs2)CC(O)C1 (centres undefined),-5.15%,-0.426,0.782%,0.798%,18%
COc1cc(O)ccc1OCCNCC(O)COc1cccc2[nH]c3ccccc3c12 (centres undefined),-25.3%,-30.6,-46.7%,-33.6%,-41.3%
Cn1c(=O)c2ccc(C(=O)NC3CCCCC3)cc2n2c(=O)n(Cc3ccc(Cl)cc3)nc12,-2.62%,3.76,1.26%,0.425%,2.26%
Cc1ccc(C)c(S(=O)(=O)N2[C@@H]3CC[C@H]2CC(NC(=O)c2ccc(F)cc2)C3)c1 (some centres undefined),-7.48%,-9.64,-7.37%,-13.3%,-2.73%
Cc1nnc([C@H]2CCN(C3CCN(C)CC3)C2)o1,-1.94%,-4.02,-1.97%,-4.5%,-17.3%
COc1cc(C)c(C(=O)O[C@@H]2[C@H](O)[C@@H](CO)O[C@H]2n2ccc(=O)[nH]c2=O)c(OC)c1,-0.445%,4.17,2.13%,-8.03%,2.18%
CCc1cc2c(cc3n2CC(C)(C(=O)NC2CCCCCC2)N(Cc2ccccc2F)C3=O)s1 (centres undefined),-1.22%,3.38,-1.03%,-2%,-4.27%
CC(C)(C)c1ccc(CN2CC3(COCC2=O)CN(c2cnccn2)C3)cc1,-9.48%,2.01,-2.58%,-20.2%,-3.73%
COC(=O)c1cc2c(C(F)(F)F)cc(-c3ccccc3)cc2n1O,-1.95%,8.5,5.84%,-20.9%,2.16%
Cn1ncc(N2CCC(C(=O)N3CCC(C(N)=O)(N4CCCCC4)CC3)C2)cc1=O (centres undefined),-3.05%,-6.54,-3.02%,-9.32%,-16.2%
COc1ccc2cc3n(c2c1)CC(C)(C(=O)NCC1CCCO1)N(Cc1ccc2c(c1)OCO2)C3=O (centres undefined),3.52%,1.59,5.34%,8.92%,1.68%
COc1ccc(NC(=O)c2c(C)nc3n2CCC(Nc2ccccc2C)C3)cn1 (centres undefined),-10.1%,-5.2,-15.6%,-8.87%,-9.53%
O=C(Cn1nc2n(Cc3ccc(F)cc3)c(=O)c3ccccc3n2c1=O)Nc1cccc(F)c1,1.83%,3.45,9.76%,-0.012%,3.18%
CCCCN(C)C(=O)Cn1c(=O)oc2cc(S(=O)(=O)N3CC(C)CC(C)C3)ccc21 (centres undefined),-5.71%,-24.9,6.26%,5.2%,-2.76%
CS(=O)(=O)CCNC(=O)C1CCCN(C2CCN(Cc3cccnc3)CC2)C1 (centres undefined),-5.11%,-2.53,-2.52%,-3.01%,-5.89%
Cc1cc(Nc2ccc(NC(=O)c3ccc(Nc4ccnc5ccccc45)cc3)cc2)nc(N)n1,-13.1% and -19.8%,-40.1,-51.9% and -72.5%,-6.74% and -55.4%,23.5% and -27.1%
COc1ccc(-n2nc(C3CCCN(C(=O)c4ccc(Cl)nc4)C3)[nH]c2=O)cc1 (centres undefined),-4.01%,-3,-0.866%,-16%,-7.28%
CCC(NC(C)C)C(O)c1ccc(O)c(O)c1 (centres undefined),-11.2%,4.33,-1.26%,-12.7%,-3.36%
COc1ccc(S(=O)(=O)N2CCC3(CCCCO3)CC2)cc1,-9.54%,-9.59,-2.2%,-14.3%,-7.87%
COC(=O)CCSC/C=C(\C)CCn1cc(CCc2ccc(-c3ccccc3)cc2)nn1,-77.3%,,-8.23%,-17.6%,7.84%
CSc1ccc(CCNC(=O)Cn2ccc3cc(S(=O)(=O)N4CCC(C)CC4)ccc32)cc1,9.35%,1.35,3.62%,5.72%,3.26%
COc1ccccc1CNC(=O)C1(C)Cn2nc(-c3ccccc3)cc2C(=O)N1Cc1ccco1 (centres undefined),-0.359%,4.43,3.07%,0.676%,-0.969%
O=C(CCn1ccc2cc(S(=O)(=O)N3CCCC3)ccc21)NCc1ccco1,-0.617%,-5.21,-1.38%,-1.49%,-0.697%
